Assay results reported in PubChem BioAssay AID493078 (National Center for Advancing Translational Sciences (NCATS), 2011).
This list was built around the results that the source calls inconclusive (neither active nor inactive); the mix of calls is not that of the screen. No potency is given beside an inconclusive call; the fits are too rough. Activity calls are given as the source filed them. Calls follow the shape of the dose curve; as a rule, active = well fitted activation curve with a large enough effect; inconclusive = small, poorly fitted or top-dose-only effect; inactive = flat fitted curve, though single readings scatter.

target: Thyrotropin-releasing hormone receptor (Homo sapiens) (UniProt P34981); assay: qHTS for Small Molecule Agonists and Allosteric Enhancers of Human TRH Receptor: Confirmation Screen for Agonists; conditions: TRHR-expressing cells, agonist activation read-out; series mostly up to 46.1 µM; activation: at the top concentration; also: nearly all actives have a fitted effect of over 75% in size; as to activation: 0% is about no effect
Source text: NIH Chemical Genomics Center [NCGC]
NIH Molecular Libraries Probe Centers Network [MLPCN]
Assay Submitter (PI): Marvin Gershengorn
This project aims to identify small drug-like molecules that activate (agonists) the thyrotropin releasing hormone (TRH) receptor (TRHR) or enhance its TRH-stimulated activity (allosteric enhancers). TRHR, a drug-accessible cell surface receptor expressed in specific brain regions, and its ligand TRH have been implicated in several central nervous system disorders, including depression and anxiety. Small molecule TRHR agonists or allosteric enhancers that are metabolically stable and able to cross the blood-brain barrier might serve as probes to elucidate the roles of brain TRH receptors in animal models, and might be valuable as lead compounds for the development of drugs to treat patients with central nervous system disorders.
Upon TRHR-Gq activation in TRHR cells, intracellular calcium is released from stores in the endoplasmic reticulum.
For the HTS assay freshly prepared cells are plated at a density of 2000/well in 3 ul of complete DMEM medium containing 10% serum in 1536-well plates and cultured over night at 37 C in a humidified incubator with 5% CO2. The next day, 2 ul of a no wash calcium dye (ABD Bioquest) was added to the cells and plates were incubated at room temperature for 1 hour. For the assay, assay plates were loaded into the FDSS kinetic plate reader. A 10 cycle (1 second/cycle) baseline measurement is taken and then the FDSS online 1536 pintool delivers 23 nl of compound library (as well as TRH controls) to the plate. The plate is measured for kinetically at 1 cycle/sec for 180 seconds and is considered to be the agonist portion of the assay (eg, compounds which activate a positive calcium response during this portion are flagged as potential agonists). Following the 180 second read, 1 ul of either an EC20 (positive modulation assay) is delivered by an onboard pipette head. Measurements are taken kinetically for an additional 180 seconds.
TRHR FDSS Screening Protocol
1. Reagent, 3 uL 2000 cells/well 1536 TC treated Black plate in media containing 10% FCS
2. Time, 18 hours, 33.5C 5% CO2 (cells grown at 37C)
3. Reagent, 2 uL ABD fluo-8 Ca dye
4. Time, 30 min-1.5hrs hours, Room temp (6 plates/batch)
5. Detector, EX 480/EM 530C, FDSS 10 cycles baseline (1sec/cycle)
6. Compound, 23 nL of stock solution from library
7. Detector, EX 480/EM 530C, FDSS 230 cycles (1sec/cycle) Agonist mode
8. Compound, 1 ul EC20 of TRH made up in HEPES HBSS, 10 nM final
9. Detector, EX 480/EM 530C, FDSS 100 cycles (1sec/cycle) Potentiator mode
Potency is read from the fitted curve at half-maximal effect; tags tell the direction and shape of the fitted curve.

Chain of UniProt P34981 (P34981 whole entry, looked up): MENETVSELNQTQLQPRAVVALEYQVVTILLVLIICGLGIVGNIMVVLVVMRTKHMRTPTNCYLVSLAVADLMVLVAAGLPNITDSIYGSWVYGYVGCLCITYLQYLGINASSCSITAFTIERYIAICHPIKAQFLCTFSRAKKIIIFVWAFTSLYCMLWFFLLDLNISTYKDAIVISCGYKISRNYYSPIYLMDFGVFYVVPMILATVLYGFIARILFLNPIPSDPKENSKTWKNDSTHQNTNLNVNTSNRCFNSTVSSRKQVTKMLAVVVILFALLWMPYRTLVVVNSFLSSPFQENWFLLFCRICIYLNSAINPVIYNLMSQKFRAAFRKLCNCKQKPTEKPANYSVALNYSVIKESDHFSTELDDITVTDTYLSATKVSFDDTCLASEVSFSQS

Row | Structure (SMILES) | Potency | activation
1 | COc1cc(/C=C2\SC(=S)N(C(Cc3ccccc3)C(=O)O)C2=O)ccc1O (stereo not given) | inconclusive [activator, partial curve] | 
2 | O=C(O)c1cccc(CSc2nc(-c3ccc(Cl)cc3)cc(C(F)(F)F)n2)c1 | inconclusive [activator, partial curve, poor fit] | 
3 | CC(=O)n1c(C=Nc2ccccc2)c(O)c2ccccc21 | active: 20.6 µM | 
4 | Cn1cccc1/C=C1\CCC/C(=C\c2cccn2C)C1=O | active: 18.4 µM | 
5 | Oc1c(Cl)cc(Cl)cc1/C=C/c1ccc2cccc(O)c2n1 | inconclusive [activator, partial curve] | 
6 | CC1=C(C(=O)OCC(C)C)C(c2cc3c(cc2Br)OCO3)NC(=O)N1C (stereo not given) | inconclusive [activator, partial curve, poor fit] | 
7 | O=C(CCCCl)Oc1ccc2cc(-c3ccc4ccccc4n3)c(=O)oc2c1 | inconclusive [activator, partial curve, poor fit] | 
8 | Cc1cccc(-n2c(N)cc(=O)nc2SCC(=O)Nc2ccccc2)c1 | inconclusive [activator, partial curve, poor fit] | 
9 | Cc1csc(N2CCCC2=O)n1 |  | inactive: -0.603%
10 | NC(=O)c1ccc[n+]([C@H]2O[C@@H](COP(=O)([O-])OP(=O)(O)OC[C@H]3O[C@@H](n4cnc5c(N)ncnc54)[C@H](O)[C@@H]3O)[C@H](O)[C@@H]2O)c1 | inconclusive [activator, partial curve, poor fit] | 
11 | CN(C)CCCNc1oc(-c2ccccc2Cl)nc1S(=O)(=O)c1ccc(F)cc1 | inconclusive [activator, partial curve, poor fit] | 
12 | O=[N+]([O-])/C=C\c1ccc(N2CCCC2)c(F)c1 | inconclusive [activator, partial curve] | 
13 | O=C(C1=NN(c2ccccc2)C2C(=O)N(c3ccccc3)C(=O)C12)c1ccccc1 (stereo not given) | active: 18.4 µM | 
14 | O=C(Cc1nc2ccccc2[nH]c1=O)c1ccccc1 | inconclusive [activator, partial curve] | 
15 | Cc1csc(NC(=O)c2sc3nc(-c4cccs4)ccc3c2N)n1 | active: 10.3 µM | 
16 | COc1cc(/C=C2\SC(=S)N(Nc3ncc(C(F)(F)F)cc3Cl)C2=O)ccc1O | inconclusive [activator, partial curve] | 
17 | Cc1ccc(C)c(S(=O)(=O)C(C#N)c2nc3ccccc3nc2N2CCCC2)c1 (stereo not given) | inconclusive [activator, partial curve, poor fit] | 
18 | COc1ccc(C2C(C(C)=O)=C(C)N=c3s/c(=C/c4ccc5c(c4)OCO5)c(=O)n32)cc1 (stereo not given) | inconclusive [activator, partial curve, poor fit] | 
19 | CN(C)Cc1c(O)ccc2c1O/C(=C\C=C\c1ccccc1)C2=O | active: 18.4 µM | 
20 | CC(C)=CCc1c(O)ccc(C(=O)Cc2ccccc2)c1O | inconclusive [activator, partial curve, poor fit] | 

Row | Structure (SMILES) | Potency | activation
21 | CCCN1C(=O)c2ccccc2NC1c1ccc(Cl)c(Cl)c1 (stereo not given) |  | inactive: -0.622%
22 | COc1ccc(-c2cc(C(F)(F)F)c3c(n2)sc2c(O)cc(=O)[nH]c23)c(OC)c1 | inconclusive [activator, partial curve, poor fit] | 
23 | Cc1c(NC(=O)Cn2nc(C(=O)O)c3ccccc3c2=O)c(=O)n(-c2ccccc2)n1C |  | inactive: -0.778%
24 | O=c1cc2oc3cc(O)c(O)cc3c(-c3ccccc3O)c-2cc1O | active: 10.3 µM | 
25 | Nc1c(C(=O)C2CC2)sc2nc(-c3ccccc3)cc(C(F)(F)F)c12 | active: 8.2 µM | 
26 | CCN(CC)c1ccc(/C=C2\SC(N)=NC2=O)cc1 | inconclusive [activator, partial curve] | 
27 | CCN(CC)S(=O)(=O)c1cccc(C(=O)N/N=C(\C)c2ccc(O)cc2O)c1 | inconclusive [activator, partial curve, poor fit] | 
28 | Nc1ccc(/C=C/C(=O)c2cccs2)cc1 | active: 20.6 µM | 
29 | CCCN1CCC(CCOc2ccccc2)(C(=O)OCC)CC1 |  | inactive: 0.912%
30 | CCc1ccccc1NC(=O)CN(C)C(=O)Cn1ncc(Cl)c(Cl)c1=O |  | inactive: 0.778%
31 | Oc1oc(-c2cccc3ccccc23)nc1/C=N/c1nccs1 | inconclusive [activator, partial curve] | 
32 | COc1ccccc1C(=O)Oc1ccc2c(c1)O/C(=C\c1ccncc1)C2=O | inconclusive [activator, partial curve, poor fit] | 
33 | CN1CCN(S(=O)(=O)c2cccc(C(=O)Oc3ccc(C(C)(C)C)cc3)c2)CC1 |  | inactive: 2.18%
34 | CN(C)CCSc1nc(-c2ccccc2)nc2c1COC(C)(C)C2 |  | inactive: 2.49%
35 | COc1cc(C2C(C#N)=C(N)Oc3cc(N(C)C)ccc32)cc2c1OCO2 (stereo not given) | inconclusive [activator, partial curve, poor fit] | 
36 | O=S(=O)(NCC1(N2CCOCC2)CCCCC1)c1ccc(Cl)cc1C(F)(F)F | inconclusive [activator, partial curve] | 
37 | O=c1ccc(-c2nc3ccccc3n2Cc2ccc(Cl)cc2)c[nH]1 |  | inactive: 0.726%
38 | CCCCCc1ccc(OCCCC[n+]2ccc(C)cc2)c(CCCCC)c1 | inconclusive [activator, partial curve, poor fit] | 
39 | CCOC(=O)c1cnc(-n2nc(C)cc2C)nc1Nc1ccc(OC)cc1 | inconclusive [activator, partial curve, poor fit] | 
40 | Cc1ccc2cc(NC(=O)c3ccccc3C)ccc2n1 |  | inactive: 0.932%
